# Test results from the supplement of paper PMC3334620.
# In all, about 33,000 sequences were measured (“E-score (-0.5 to 0.5)”: median about -0.035, highest 2% from about 0.34 on). The list shows a part of the results.
# Molecular target: T1, Mot3 (UniProt P54785)
# T1 sequence: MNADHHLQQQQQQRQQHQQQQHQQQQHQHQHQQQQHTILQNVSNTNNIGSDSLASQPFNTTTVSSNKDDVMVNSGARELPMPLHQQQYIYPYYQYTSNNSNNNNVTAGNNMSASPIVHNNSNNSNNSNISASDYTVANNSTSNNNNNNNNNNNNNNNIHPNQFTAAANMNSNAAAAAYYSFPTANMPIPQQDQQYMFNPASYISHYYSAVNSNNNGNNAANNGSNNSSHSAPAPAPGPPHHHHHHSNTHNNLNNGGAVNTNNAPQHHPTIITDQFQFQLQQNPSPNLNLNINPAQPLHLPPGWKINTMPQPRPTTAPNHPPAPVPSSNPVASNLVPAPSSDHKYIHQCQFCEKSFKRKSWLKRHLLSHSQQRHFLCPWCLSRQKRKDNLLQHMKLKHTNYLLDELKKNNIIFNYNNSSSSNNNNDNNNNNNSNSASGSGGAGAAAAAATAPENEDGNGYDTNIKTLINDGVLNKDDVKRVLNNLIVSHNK
# Assay: PBM E-score (8-mer binding enrichment) (E-score (-0.5 to 0.5)); higher = stronger / more preferred TF binding; most listed sequences are background and not binding sites
# Conditions: protein concentration: 200 nM; construct: GST-full length
# Outline: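 Universal all-10-mer Agilent arrays, fresh or stripped once, were converted to double-stranded form by primer extension. GST-tagged yeast transcription factors from PURExpress in vitro transcription/translation, full-length or DNA-binding domain only, were applied at about 100-200 nM and detected with fluorescent anti-GST. After masliner normalisation, the Universal PBM Analysis Suite scored each ungapped eight-base word together with its reverse complement by E-score.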
row,Sequence,PBM E-score
1,AATGACGG,-0.203
2,CACAGGGG,0.118
3,CACTGTGC,0.0897
4,AAAATGAG,0.0191
5,GGGGAAGA,-0.264
6,ATCGCTAG,-0.0658
7,TGCGAACA,0.175
8,AGTTGCCA,-0.181
9,CTTCCCTA,-0.206
10,ACTCCAAA,-0.149
11,ACCATCCC,-0.231
12,CTGGTAAC,-0.0508
13,CCTGTCGA,0.342
14,CAGTCGTA,0.0388
15,GAAGTACC,0.00084
16,GTCTCGCA,-0.238
17,GAAATAGA,0.0538
18,GGCCCCCC,-0.414
19,CTGCGGGC,-0.066
20,CTGCGGCC,-0.267
21,GTTCGCAA,0.124
22,AATATCAG,-0.0765
23,ACTATAGT,0.134
24,TATAGAAA,-0.00343
25,AAAGTACC,0.119

row,Sequence,PBM E-score
1,CCTCCGCG,-0.0559
2,AGACCGTC,-0.253
3,ACATAGGC,0.373
4,CTTCTACC,0.0021
5,CCGATGTA,0.119
6,ATAGCCAC,-0.179
7,CATTAAAG,0.191
8,CGCCGGCG,-0.00049
9,CGCTAGAC,-0.238
10,CTTAAAAC,0.189
11,ACAACACC,0.153
12,AATCGGGT,-0.0444
13,ATTAGCTG,-0.0217
14,AAACATGC,0.288
15,AGTAACGC,0.0943
16,GGTTTACA,0.333
17,AAGGCCTG,-0.15
18,AGCGAATG,-0.143
19,ACCATACG,0.0609
20,AGCGGGGC,-0.189
21,CCATAAGA,-0.274
22,GAACTAGC,-0.151
23,CTCATGAG,-0.0531
24,ATCCAAAA,-0.0239
25,GCTTCAGA,-0.0764

row,Sequence,PBM E-score
1,ATCGAAAA,0.00249
2,CAGAAACG,0.0904
3,GCGTCACC,-0.0845
4,CTGAAATA,0.0144
5,AACCTTCC,-0.0767
6,GATGAAAC,0.0451
7,CGGGCGCA,-0.165
8,TAATTACA,0.372
9,AAAGTTTA,0.159
10,ATACTACA,0.246
11,AACTTAAA,0.212
12,CACCAGCG,-0.0493
13,ATTGGCCC,-0.299
14,CCGCGGAC,-0.294
15,AACACTGT,0.0505
16,AATGAGAG,-0.202
17,GGACGACA,0.0208
18,GGTAGTGA,-0.201
19,CGCAGAAA,-0.244
20,CAGTAAAG,0.0534
21,AACGTTTC,0.172
22,CTCTTACC,0.0643
23,GCATTCGA,-0.0683
24,CAGCAAAA,0.102
25,CCCCCGCG,-0.32

row,Sequence,PBM E-score
1,TCGTCTCA,-0.254
2,CTCCTCTA,-0.118
3,CACCAACG,-0.118
4,AAAGCTAC,-0.0699
5,ACACGGGG,0.224
6,AGTCAGTG,-0.157
7,AGGAAACC,0.42
8,CTTGCCCA,0.0604
9,GACGGAAA,-0.17
10,GGGTAAAA,0.112
11,CCGTAAAA,0.0155
12,AAATTTCG,-0.0216
13,AGCAGCCT,-0.0358
14,CGCTACAC,0.123
15,ACTTAACA,0.321
16,ACAAAGCA,0.168
17,AGCTCACG,-0.128
18,CGAGACAA,-0.143
19,ATCGTAAT,0.126
20,CCATTCAA,-0.0143
21,AGCTAATG,-0.127
22,ATACCTGC,0.096
23,AGGGACGG,-0.257
24,GGAGACAC,-0.149
25,CACTATAC,0.0582

row,Sequence,PBM E-score
1,AATGTGTA,0.289
2,GAGTGAAC,-0.0629
3,TATCGCAA,-0.0895
4,CAGAAGCC,-0.321
5,CGCCGCGC,-0.161
6,CATTGGCG,-0.0916
7,ATAGTGAC,-0.0838
8,CACCCAGA,-0.16
9,CCTTGTTC,0.0411
10,ATCCTAAT,-0.0605
11,ATCATCTA,-0.0877
12,ACCCAGCA,-0.053
13,AGGAACAG,0.434
14,CTACAGAC,0.0592
15,ATTCTAGG,0.17
16,GCAGCGAA,-0.14
17,ATGTTTTC,0.303
18,ATCAAATA,-0.0238
19,GATGTGCA,-0.0886
20,CAAGAACG,0.0431
21,ATGGTTGC,0.004
22,ATGACGTA,0.134
23,GACGACAC,0.0875
24,CAGATGAA,0.115
25,AACAGCCG,-0.0546

row,Sequence,PBM E-score
1,ACCGGCAA,-0.128
2,AGTTTACC,0.0908
3,ACAGCATA,0.133
4,ACTCTCCT,-0.188
5,AGCCAGCG,-0.32
6,CGGAGTGA,-0.142
7,CAAAGGGG,-0.0204
8,AGATTCAG,0.114
9,CCTAGGCC,-0.0992
10,GCCGACGC,-0.213
11,ACTCTCTA,-0.0457
12,AATGTCAG,0.0298
13,CAAAGATC,0.0196
14,GCATCTCA,-0.0798
15,CAAACAAG,-0.00987
16,CACAACTC,0.0906
17,AAACGCCC,-0.209
18,ATGCATCA,0.104
19,ATACAAGG,0.228
20,GCAGCGCA,-0.124
21,CTTTATCA,0.0984
22,TGAGGCAA,0.389
23,CCCGTAAC,-0.00854
24,AGGAAACG,0.339
25,ACGGTCAG,-0.0838

row,Sequence,PBM E-score
1,ACTCTATG,-0.0104
2,CTCCGGAG,-0.366
3,CACCCTTC,-0.121
4,TTACATAA,0.408
5,TCCGCGGA,-0.0925
6,CAACAAAA,0.252
7,GACTTAGA,-0.164
8,ACATTGAG,-0.0439
9,CAGTTACG,0.0221
10,TCCAGAAA,0.138
11,ATGCTATC,-0.0826
12,CTAAGTGA,-0.0162
13,ACTGTGAA,-0.0771
14,CAAGGCGA,-0.00267
15,CACTTGCA,-0.04
16,GGTGAGAA,-0.152
17,ACTCGATC,-0.173
18,GGGGAACA,-0.199
19,CGCTTCAC,-0.0668
20,ACTCTTGC,0.0127
21,AGAGTAGG,0.131
22,ATACCCGA,-0.0916
